From patent publication US20230167188A1 (BIOLOJIC DESIGN, published 2023)

T1: human TNFR2 (residues 1-461) expressed on HEK-TNFR2 reporter cells (human, UniProt P20333 23-461)
T1 sequence (looked up): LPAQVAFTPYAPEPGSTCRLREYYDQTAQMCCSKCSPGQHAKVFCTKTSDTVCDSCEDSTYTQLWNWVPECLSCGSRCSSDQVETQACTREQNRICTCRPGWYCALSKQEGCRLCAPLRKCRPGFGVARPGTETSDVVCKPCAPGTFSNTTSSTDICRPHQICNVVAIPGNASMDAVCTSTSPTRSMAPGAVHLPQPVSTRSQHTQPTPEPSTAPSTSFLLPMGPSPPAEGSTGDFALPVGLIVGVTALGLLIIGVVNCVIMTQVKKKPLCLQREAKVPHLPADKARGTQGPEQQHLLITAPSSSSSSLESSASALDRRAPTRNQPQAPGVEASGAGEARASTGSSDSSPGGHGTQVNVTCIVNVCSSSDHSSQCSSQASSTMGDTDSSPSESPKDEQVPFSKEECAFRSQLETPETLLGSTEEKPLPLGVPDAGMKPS

T2: recombinant human TNFR2 with 6×his tag (human, UniProt P20333 23-257, limits assumed)
T2 construct: Bought (Reprokine, Israel); also called TNFR2-His; hTNFR2-His; not shown: 6xHis tag
T2 sequence (looked up): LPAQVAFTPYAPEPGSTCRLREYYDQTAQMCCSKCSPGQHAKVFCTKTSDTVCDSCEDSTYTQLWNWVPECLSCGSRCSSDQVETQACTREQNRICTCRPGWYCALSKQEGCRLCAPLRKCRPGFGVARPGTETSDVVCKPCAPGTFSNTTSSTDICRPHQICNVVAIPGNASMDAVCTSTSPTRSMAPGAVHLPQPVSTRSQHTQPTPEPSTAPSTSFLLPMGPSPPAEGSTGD

B1: BDG30.046 (antibody, human IgG1, kappa)
heavy: EVQLVQSGAEVKKPGSSVKVSCKASGDTFTSYSFNWVRQAPGQGLEWMGRIITILDDTEYAPHLQGRVTITADKSTSTVYLELRNLRSDDTAVYFCAGVYEGPNSEGSYDDYGFLKHWGQGTLVTVSS[human IgG1 constant region not written out]
light: DIVMTQSPATLSVSPGERATLSCRASESVANDLAWYQQKPGQVPRLLIYGASTRATGVPARFSGSGSGAEFTLTISSLQSEDFAVYYCQQYANWPPRETFGQGTRLEIKRTVAAPSVFIFPPSDEQLKSGTASVVCLLNNFYPREAKVQWKVDNALQSGNSQESVTEQDSKDSTYSLSSTLTLSKADYEKHKVYACEVTHQGLSSPVTKSFNRGEC
notes: Human IgG1; produced in HEK cells by Genscript; also called IgG of CID_251
B2: BDG30.200 (antibody, human IgG1, kappa)
heavy: EVQLVQSGAEVKKPGSSVKVSCKASGDTFTSYSFNWVRQAPGQGLEWMGRIITILDDTEYAPHLQGRVTITADKSTSTVYLELRNLRSDDTAVYFCAGVYEGPNSEGSYDDYGFLKHWGQGTLVTVSS[human IgG1 constant region with changes not written out]
light: B1 light
B3: BDG30.094 (antibody, human IgG1, kappa)
heavy: B1 heavy with I54D, F114Q
light: B1 light
notes: Human IgG1; also called IgG of CID_280
B4: BDG30.201 (antibody, human IgG1, kappa)
heavy: EVQLVQSGAEVKKPGSSVKVSCKASGDTFTSYSFNWVRQAPGQGLEWMGRIITIYDDTEYAPHLQGRVTITADKSTSTVYLELRNLRSDDTAVYFCAGVYEGPNSEGSYDDYGFFKHWGQGTLVTVSS[human IgG1 constant region with changes not written out]
light: B1 light
B5: BDG30.118 (antibody, human IgG1, kappa)
heavy: EVQLVQSGAEVKKPGSSVKVSCKASGDTFTSYSFNWVRQAPGQGLEWMGRIITDLDDTEYAPHLQGRVTITADKSTSTVYLELRNLRSDDTAVYFCAGVYEGPNSEGSYDDYGQLKHWGQGTLVTVSS[human IgG1 constant region with changes not written out]
light: B1 light
notes: Human IgG1(L234A/L235A); also called IgG of CID_280
B6: BDG30.092 (antibody, human IgG1, kappa)
heavy: B1 heavy with L55Y, L115F
light: B1 light
notes: Human IgG1; also called IgG of CID_276
B7: BDG30.117 (antibody, human IgG1, kappa)
heavy: EVQLVQSGAEVKKPGSSVKVSCKASGDTFTSYSFNWVRQAPGQGLEWMGRIITILDDTEYAPHLQGRVTITADKSTSTVYLELRNLRSDDTAVYFCAGVYEGPNSEGSYDDYGFLKYWGQGTLVTVSS[human IgG1 constant region with changes not written out]
light: B1 light with N31V, W94K
notes: Human IgG1(L234A/L235A); also called IgG of CID_277
B8: BDG30.093 (antibody, human IgG1, kappa)
heavy: B1 heavy with H117Y
light: B1 light with N31V, W94K
notes: Human IgG1; also called IgG of CID_277
B9: BDG30.119 (antibody, human IgG1, kappa)
heavy: EVQLVQSGAEVKKPGSSVKVSCKASGDTFTSYSFNWVRQAPGQGLEWMGRIITIDDDTEYAPHLQGRVTITADKSTSTVYLELRNLRSDDTAVYFCAGVYEGPNSEGSYDDYGQLKHWGQGTLVTVSS[human IgG1 constant region with changes not written out]
light: B1 light with A30G, W94V
notes: Human IgG1(L234A/L235A); also called IgG of CID_284
B10: BDG30.109 (antibody, human IgG1, kappa)
heavy: QVQLVQSGAEVKKPGSSVKVSCKASGYTFTDLGIGWVRQAPGQGLEWMGWINTHTGEPYDNPKFKGRVTITADKSTSTAYMELSSLRSEDTAVYYCTRDHPLGLDYWGQGTTVTVSS[human IgG1 constant region not written out]
light: DIVMTQSPDSLAVSLGERATINCRSSQSVDVNGVSYLDWYQQKPGQPPKLLITKASNRESGVPDRFSGSGSGTDFTLTISSLQAEDVAVYYCQQNREDPYTFGGGTKVEIKRTVAAPSVFIFPPSDEQLKSGTASVVCLLNNFYPREAKVQWKVDNALQSGNSQESVTEQDSKDSTYSLSSTLTLSKADYEKHKVYACEVTHQGLSSPVTKSFNRGEC
notes: Human IgG1; also called IgG of CID_332
B11: BDG30.123 (antibody, human IgG1, kappa)
heavy: QVQLVQSGAEVKKPGSSVKVSCKGSGYTFTDLGIGWVRQAPGQGLEWMGWINTHTGEPFYNPKFKGRVTITADKSTSTAYMELSSLRSEDTAVYYCTRDHPLGLDYWGQGTTVTVSS[human IgG1 constant region with changes not written out]
light: B10 light with D38N, L50F, T53Y, N95A
B12: BDG30.122 (antibody, human IgG1, kappa)
heavy: QVQLVQSGAEVKKPGSSVKVSCKASGYTFTDLGIGWVRQAPGQGLEWMGWINTHTGEPYDNPKFKGRVTITADKSTSTAYMELSSLRSEDTAVYYCTRDHPLGLDYWGQGTTVTVSS[human IgG1 constant region with changes not written out]
light: B10 light
B13: BDG30.111 (antibody, human IgG1, kappa)
heavy: B10 heavy with A24G, Y59F, D60Y
light: B10 light with D38N, L50F, T53Y, N95A
notes: Human IgG1; also called IgG of CID_350
B14: BDG30.095 (antibody, human IgG1, kappa)
heavy: B1 heavy with L55D, F114Q
light: B1 light with A30G, W94V
notes: Human IgG1; also called IgG of CID_284

Target: T1, human TNFR2 (residues 1-461) expressed …
Assay: cell-based or functional assay

| Functional Agonism EC50 (nM), NFkB-SEAP reporter | Binder |
| --- | --- |
| 22 nM | B1 |
| 24.4 nM | B2 |
| 3.9 nM | B3 |
| 20 nM | B4 |
| 5.4 nM | B5 |
| 17.6 nM | B6 |
| 277 nM | B7 |
| 20.6 nM | B8 |
| 2.6 nM | B9 |
| 4.2 nM | B10 |
| 2.6 nM | B11 |
| 2.3 nM | B12 |
| 7.4 nM | B13 |

Target: T2, recombinant human TNFR2 with 6×his tag
Assay: ELISA, IgG coated, hTNFR2-His titrated, anti-His-HRP
Protocol: IgG binding affinity to TNFR2 was examined by ELISA. 96 well plates (Greiner Bio-One high binding) were coated with (50 ng/well) of the analyzed antibody and incubated overnight at 4° C. The plates were then washed three times with 300 μl PBS buffer containing 0.05% Tween 20 (PBS-T), blocked with 300μ PBS-T supplemented with 1% to 2% BSA, and incubated for 1 hour at room temperature. Antibodies-coated plates were washed three times with 300 μl PBS-T and incubated with serial dilutions of test ligand hTNFR2-His (Reprokine, Israel) in a final volume of […] for 1-2 hours. Plates were then washed three times with 300 μl PBS-T and incubated with 50 μl anti-HIS-HRP (Santa Cruz Biotechnology, USA, SC-8036HRP) conjugate that was diluted 1:250 in PBS. After an additional wash step of six washes, the reaction was developed with […] tetramethylbenzidine (TMB) reagent (Southern biotech, USA), and stopped with […] 0.5N H₂SO₄. Detection was done on a Synergy LX BioTek (BioTek, USA) plate reader with an absorbance filter set to […]. The binding affinity was determined by fitting the data to a specific binding non-linear regression model on Prisma 8 GraphPad software.
To test binding affinity of clones reformatted as IgG1 and IgG1LALA to TNFR2, an ELISA EC₅₀ binding experiment was conducted for each antibody.

| EC50 | Binder |
| --- | --- |
| 13.4 nM | B1 |
| 3.7 nM | B3 |
| 1.7 nM | B5 |
| 15.4 nM | B6 |
| 4.6 nM | B14 |
| 2.9 nM | B7 |
| 6.8 nM | B8 |
| 1.8 nM | B9 |
| 5.6 nM | B10 |
| 3.55 nM | B13 |

Residue numbers refer to the chain shown, from its start. Names may count otherwise.
